Among all 310,000 compounds or so, about 2,200 (0.71%) showed an effect of 50% or more. Effects have a minus sign here. The list shows a part of the results.

For this assay, the target named is human ether-à-go-go-related gene (hERG) potassium channel (human, UniProt Q12809). The experiment in a line: primary screen, population patch clamp on CHO cells stably expressing hERG.
human ether-à-go-go-related gene (hERG) potassium channel, sequence (Q12809 whole entry, looked up): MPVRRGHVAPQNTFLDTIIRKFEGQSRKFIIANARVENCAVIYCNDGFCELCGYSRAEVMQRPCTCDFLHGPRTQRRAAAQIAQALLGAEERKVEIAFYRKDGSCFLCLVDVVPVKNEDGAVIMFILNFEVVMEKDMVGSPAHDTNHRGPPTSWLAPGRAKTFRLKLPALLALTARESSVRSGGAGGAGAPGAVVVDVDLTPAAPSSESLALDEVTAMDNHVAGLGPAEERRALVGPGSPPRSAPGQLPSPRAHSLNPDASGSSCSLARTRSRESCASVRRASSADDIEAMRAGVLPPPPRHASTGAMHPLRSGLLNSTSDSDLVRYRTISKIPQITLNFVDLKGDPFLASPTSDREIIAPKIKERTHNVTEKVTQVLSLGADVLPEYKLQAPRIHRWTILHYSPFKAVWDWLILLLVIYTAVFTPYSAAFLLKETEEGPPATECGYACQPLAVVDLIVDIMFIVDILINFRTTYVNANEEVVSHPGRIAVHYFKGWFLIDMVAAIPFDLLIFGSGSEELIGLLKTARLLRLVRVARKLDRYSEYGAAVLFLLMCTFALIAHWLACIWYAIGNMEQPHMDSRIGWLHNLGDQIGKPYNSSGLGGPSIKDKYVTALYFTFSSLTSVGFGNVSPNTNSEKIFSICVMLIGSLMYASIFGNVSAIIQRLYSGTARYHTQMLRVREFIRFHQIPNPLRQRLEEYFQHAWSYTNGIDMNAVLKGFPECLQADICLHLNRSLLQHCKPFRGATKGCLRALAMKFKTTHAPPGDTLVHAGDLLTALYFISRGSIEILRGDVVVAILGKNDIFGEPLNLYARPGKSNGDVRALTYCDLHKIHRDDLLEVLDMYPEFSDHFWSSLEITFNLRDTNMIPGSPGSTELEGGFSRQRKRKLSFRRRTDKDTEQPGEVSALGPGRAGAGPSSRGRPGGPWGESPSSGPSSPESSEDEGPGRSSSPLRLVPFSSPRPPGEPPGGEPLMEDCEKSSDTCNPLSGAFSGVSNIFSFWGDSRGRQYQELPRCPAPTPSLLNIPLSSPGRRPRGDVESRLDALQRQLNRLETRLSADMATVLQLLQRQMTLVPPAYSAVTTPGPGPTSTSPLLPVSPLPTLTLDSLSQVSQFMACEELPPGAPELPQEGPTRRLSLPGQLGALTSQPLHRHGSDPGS
Turning to `Cn1cnnc1SCC(=O)NC1CCCc2ccccc21` (stereo not shown), the “hERG current change (%, negative = inhibition) at 1uM” value amounted to 9.41%.
On to `Cc1ccc(OS(=O)(=O)c2cn(C)c(=O)n(C)c2=O)cc1C`, for which the “hERG current change (%, negative = inhibition) at 1uM” value stood at 4.07%.
In the case of `CCS(=O)(=O)N1Cc2ccccc2CC1C(=O)OCC(=O)Nc1ccc(C)cc1` (stereo not shown) it was -5.95%; in that of `N/C(COc1ncn(-c2ccccc2)n1)=N\S(=O)(=O)c1ccc(Cl)cc1Cl`, -2.41%; in that of `CCOC(=O)c1ccc(NC(=O)Nc2ccc(OC)c(OC)c2)cc1`, -7.78%.
For `O=C(NCCc1ccccc1)C(=O)N/N=C/c1ccccc1C(F)(F)F`, the “hERG current change (%, negative = inhibition) at 1uM” value was 13.8%.
In the case of `C/C=C/CC1(CC)C(=O)NC(=S)NC1=O` it was 16.6%; in that of `Cc1cccc(CSc2nnc3c(n2)[nH]c2ccccc23)c1`, 9.89%.
As for `O=C(CSc1nc2ccccc2[nH]1)N1CCN(c2ccccc2)CC1`, the “hERG current change (%, negative = inhibition) at 1uM” value stood at 14.3%.
With `CCOP(=O)(OCC)c1nc(Cc2ccccc2)oc1NCc1ccccc1` the figure was 12.9%; with `Cc1ccc(C)c(NC(=O)c2cc([N+](=O)[O-])cc([N+](=O)[O-])c2)c1`, 13.4%.
In the case of `O=C(NCCO)C(c1ccccc1)c1ccccc1` it was -1.15%; in that of `CC(C)[C@H](NC(=O)OCc1ccccc1)C(=O)NCc1ccccc1`, 11.4%; in that of `COc1cccc(NC(=O)N2CCCC(C(=O)Nc3ccccc3OC)C2)c1` (stereo not shown), 0.911%.
In the case of `COc1ccc(CCC(C(O)C(F)(F)F)S(=O)c2ccccc2)cc1` (stereo not shown) it was 16.2%.
As for `COCCNC(=O)c1ccc(N2CC3CC(C2)c2cccc(=O)n2C3)c(NC(=O)c2c(F)cccc2F)c1` (stereo not shown), the “hERG current change (%, negative = inhibition) at 1uM” value was determined as 3.23%.
In the case of `CC(=O)OCC1=C(C(=O)O)N2C(=O)C(NC(=O)C(C)Cn3cc(Cl)cn3)C2SC1` (stereo not shown) it was 10.3%; in that of `COc1ccc(/C=C/C(=O)Nc2cc(C(F)(F)F)ccc2Cl)cc1`, 12%.
In the case of `Cc1cccc(NS(=O)(=O)c2ccc(C(=O)NCC(c3ccco3)N3CCCCC3)cc2)c1C` (stereo not shown) it was 1.52%.
In the case of `Cc1noc(C)c1COc1ccc(C(=O)OCC(=O)NC2CCCCC2C)cc1` (stereo not shown) it was 12.7%; in that of `CC1Cc2ccccc2N1C(=O)CSc1nc2c(c(=O)n(C)c(=O)n2C)n1Cc1ccc(F)cc1` (stereo not shown), 8.8%; in that of `Cc1ccc(C(=O)Nc2ccccc2N2CCCCC2)o1`, 9.19%.
Take `CCCCCn1c(=O)c(C(=O)Nc2cc(C)ccn2)c(O)c2ccccc21`: the “hERG current change (%, negative = inhibition) at 1uM” value came to 17.6%.
In the case of `Cc1ccc(-c2noc(CNS(=O)(=O)c3ccccc3)n2)cc1` it was 13.7%; in that of `Cc1ccccc1OCC(=O)NN1CCN(C)CC1.Cl`, 7.51%; in that of `C=CCn1c(=O)n(CCC#N)c(=O)n(CCC#N)c1=O`, 11.8%.
In the case of `Cc1cc(S(=O)(=O)N2CCCC2)ccc1OCC(=O)Nc1ccccc1` it was 17.7%; in that of `CCN(CCCNC(=O)C1CCC(=O)N1C1CCCC1)c1cccc(C)c1` (stereo not shown), 3.73%; in that of `O=C(OCC(=O)N1CCc2ccccc21)c1cccc(S(=O)(=O)N2CCCc3ccccc32)c1`, -2.95%.
In the case of `O=[N+]([O-])c1ccccc1-c1ccc(CN2CCN(c3ccccc3)CC2)o1` it was 4.79%.
Regarding `Cc1nc2cc(N3CCN(C)CC3)c(NC(=O)Cc3ccccc3)cc2c(=O)n1Cc1ccccc1`, the “hERG current change (%, negative = inhibition) at 1uM” value was 13.6%.
With `Cn1c(C(=O)N2CCN(C(=O)c3ccco3)CC2)cc2c(=O)n3ccccc3nc21` the figure was 2.19%; with `CCCC1=C(C(=O)OCC)C(c2cc(Cl)cc(OC)c2OCc2ccccc2)NC(=O)N1` (stereo not shown), 1.7%; with `COc1ccccc1CN1CCNC(=O)C1CC(=O)N(C)Cc1ccon1` (stereo not shown), 16.3%.
With `CC1C(=O)Nc2ccccc2N1C(=O)c1ccc(Cl)cc1` (stereo not shown) the figure was 19.2%; with `O=C(/C=C/c1ccc(Cl)cc1)NC(=S)NN1CCCCC1c1cccnc1` (stereo not shown), -35.6%.
As to `CC/C(=N\NC(=O)C1CCCC1)c1cccc(Br)c1`, the “hERG current change (%, negative = inhibition) at 1uM” value is listed as 10.6%.
Take `O=C(Cn1c(=O)oc2cc(S(=O)(=O)N3CCCC3)ccc21)N1CCc2ccccc2C1`: the “hERG current change (%, negative = inhibition) at 1uM” value is recorded as 1.68%.
In the case of `CCOc1cccc2cc(C(=O)NCc3ccc(F)cc3)c(=N)oc12` it was 10.8%.
With `O=C(Nc1nc(-c2ccccc2)cs1)c1ccc2c(=O)n3c(nc2c1)CCCCC3`, the “hERG current change (%, negative = inhibition) at 1uM” value amounted to 13.1%.
Regarding `Cc1cccc(CC(=O)Nc2cccnc2)c1`, the “hERG current change (%, negative = inhibition) at 1uM” value is 5.7%.
Take `COc1cccc(OCCCn2cc(/C=C3/C(=N)N4C=C(C)SC4=NC3=O)c3ccccc32)c1`: the “hERG current change (%, negative = inhibition) at 1uM” value is 12.3%.
In the case of `CCC(=O)Nc1cccc(NC(=O)c2cc3ccccc3o2)c1` it was 6.4%.
In the case of `CCOC(=O)c1ccccc1NC(=O)C1CC(=O)N(c2ccccc2)C1` (stereo not shown) it was 9.81%.
In the case of `Cc1cc(Cl)ccc1NC(=O)NC1CCN(S(=O)(=O)c2ccc(F)cc2)CC1` it was 2.31%.
For the compound `O=C(O)c1ccc(N=Nc2c(-c3ccccc3)[nH]oc2=O)cc1`, the “hERG current change (%, negative = inhibition) at 1uM” value was 19.2%.
As for `Cc1cc(C)c(S(=O)(=O)N2CCN(C(=O)C(C)Cn3nc(C)nc3C)CC2)c(C)c1` (stereo not shown), the “hERG current change (%, negative = inhibition) at 1uM” value worked out at 12.6%.
On to `Cc1cc(C)c(C#N)c(SCC(=O)N2CCCCC2)n1`, for which the “hERG current change (%, negative = inhibition) at 1uM” value is 13.4%.
Take `CCCNC(=O)C1CN(S(=O)(=O)c2ccccc2)CCN1S(=O)(=O)c1ccccc1` (stereo not shown): the “hERG current change (%, negative = inhibition) at 1uM” value was found to be 9.18%.
With `COc1ccccc1CNC(=O)CCCN1C(=O)COc2ccc(C)cc21` the figure was -3.34%; with `Nc1cc(=O)[nH]c(SCC(=O)N2CCCCC2)n1`, 22.3%; with `CC(C)N1CCC(N2CCN(Cc3cc(F)ccc3-n3cccn3)CC2CCO)CC1` (stereo not shown), 1.05%.
In the case of `O=[N+]([O-])c1ccc(-n2cccc2/C=N/Nc2nc(N3CCCCC3)nc(N3CCCCC3)n2)cc1`, the “hERG current change (%, negative = inhibition) at 1uM” value is 11.6%.
With `CN(Cc1ccccc1)C1CCCN(C(=O)c2ccc(Cl)s2)C1` (stereo not shown) the figure was 7.85%; with `CCOC(=O)C1CCCN(CC(=O)Nc2nc(-c3ccccc3)cs2)C1` (stereo not shown), 13.3%.
